# According to PubChem BioAssay (NCI):
# Values joined by “and” are separate entries in the source; they are usually repeats but may differ in a detail not shown here. Equal entries are not always repeated.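 All cell lines were grown in 96-well plates and treated with compound for 48 hours. GI50 marks 50% less growth. At the TGI there is no net growth.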
# Test system: NCI-H322M lung
# Assay: inhibition of tumour cell growth, NCI panel, 48 h
SMILES,TGI,GI50
Cc1ccc(S(=O)(=O)[N-]C2C(=O)c3ccccc3C(=O)C2[n+]2cccc(C(N)=O)c2)cc1 (stereo not given),> 100 µM,–
CC12CCc3ccccc3C1=Nc1ccccc12 (stereo not given),> 100 µM,–
CC[C@@H](C)[C@H]([C@H](CC(=O)N1CCC[C@@H]1[C@@H](OC)[C@H](C)C(=O)N[C@H](Cc1ccccc1)c1nccs1)OC)N(C)C(=O)[C@H](NC(=O)[C@@H](C(C)C)N(C)C)C(C)C,–,< 0.215 µM
CCOC(=O)C1=C(C)N(C)C(=S)NC1c1cccc(O)c1 (stereo not given),> 100 µM,–
COc1cccc(-c2cccc(SC)n2)n1,> 100 µM,–
Cc1ccc(S(=O)(=O)NC(=O)NCC(=O)NCC(=O)O)cc1,> 100 µM,–
CC(=O)OCC1OC(n2c3c(c(-c4ccc(Cl)cc4)c(C#N)c2=S)C(=O)CC(C)(C)C3)C(OC(C)=O)C(OC(C)=O)C1OC(C)=O (stereo not given),> 95.1 µM,–
Cn1cnc2c(OCC3CCCCC3)nc(N)nc21,> 100 µM,–
Cc1nccc2c1cnc1ccnn12,> 100 µM,–
Cc1c2ccnc(-c3ccccc3)c2cc2c1[nH]c1ccccc12,11.5 µM,–
Cc1[nH]c(=O)nc(CC(O)(c2ccccc2)c2ccccc2)c1-c1ccccc1,> 100 µM,–
COc1ccc2[nH]c(-c3cccc(N(C)C)c3)cc(=O)c2c1,> 100 µM,0.515 µM
CC1=CCC[C@@](C)(O)[C@@H]2C[C@H]3C(CSc4ccccc4)C(=O)O[C@H]3[C@@H](O2)[C@H](C)CCC1 (stereo not given in full),41.4 µM,–
CC(NC(=O)/C(C#N)=C/c1ccc2[nH]ccc2c1)c1ccccc1 (stereo not given),50.9 µM,–
C[C@@]1(c2ncncc2F)NC(=O)c2cc(-c3cn[nH]c3)ccc21,> 100 µM,17.4 µM
O=C1NC(=O)C2(CCC(O)C2)c2cc[n+]([O-])cc21 (stereo not given),> 100 µM,–
BrC(Br)(Br)c1cnc2ccccc2n1,19.2 µM,5.86 µM
COc1ccc(OC)c(NC(=O)C(=O)Nn2c(=S)[nH]c3ccccc3c2=O)c1,> 100 µM,–
O=C1C=CN(C2OC(CO)C(O)C2O)C(=O)C1 (stereo not given),625 µM and > 2500 µM,267 µM

SMILES,TGI,GI50
O=C(O)c1ccccn1,> 100 µM,–
CCOC(=O)CNC(=O)CCCn1c(=O)c2c3ccccc3n(C)c2n2nnc(-c3ccccc3)c12,> 50 µM,> 50 µM
Cn1cc2c(=O)n3ncn(-c4ccc(Br)cc4)c3nc2n1,> 100 µM,–
c1ccc2cc(OCC3CO3)c(OCC3CO3)cc2c1 (stereo not given),25.2 µM,–
COC(=O)C1=C(c2cc(OC)c(OC)c(OC)c2)OC(c2cc(OC)c(OC)c(OC)c2)C1COC(C)=O (stereo not given),> 100 µM,–
C[n+]1cccc(/C=C/c2ccc3cccc(O)c3n2)c1,> 100 µM,–
CC[C@H](Nc1nc(N)nc(N)c1Cl)c1nc2cccc(NCc3ccc(C(=O)NO)cc3)c2c(=O)n1-c1ccccc1,7.18 µM,2.25 µM
COC(=O)[C@@H](Cc1c[nH]c2ccccc12)NC(=O)/C=C/c1ccccc1,> 100 µM,9.11 µM
COc1ccccc1CNC(=O)C1c2ccccc2C(=O)N(CC(C)C)C1c1cccs1 (stereo not given),> 100 µM,32.2 µM
OCC(O)COc1c(Cl)ccc(Cl)c1Cl (stereo not given),> 100 µM,–
Cc1cc(S(=O)(=O)Nc2nc(N)nc(N3CCOCC3)n2)c(SCC(=O)O)cc1Cl,> 10 µM,–
CCCC(=O)N/S(=N/S(=O)(=O)c1ccc(Cl)cc1)C(Cl)(Cl)Cl (stereo not given),> 100 µM,–
CCOc1ccc(N/C(=C(/C(Cl)=C(/Cl)NCCO)[N+](=O)[O-])n2nnc3ccccc32)cc1,> 100 µM,–
C[C@]12CC(c3ccccc3O1)C(C#N)C(=O)N2 (stereo not given in full),> 100 µM,–
CCOC(=O)c1c2c(c(O)c3ccccc3c(O)n(-c3ccc(C)cc3)c1C)C(=O)C=CC2=O,57 µM,–
CC(C)CC(CNC(Cc1ccc(Cl)cc1)C(N)=O)NC(=O)C(Cc1cnc[nH]1)NC(=O)CNC(=O)C(NC(=O)C(C)NC(=O)C(Cc1c[nH]c2ccccc12)NC(=O)C(CCC(=O)O)NC(=O)C(N)Cc1ccccc1)C(C)C (stereo not given),> 133 µM,–
O=C(O)C(Br)C(Br)c1ccccc1[N+](=O)[O-] (stereo not given),> 100 µM,–
O=C(CSCC(=O)N/N=C/c1cccc(OCc2ccccc2)c1)N/N=C/c1cccc(OCc2ccccc2)c1,> 100 µM,–
CCCCSC1=N/C(=C\c2ccco2)C(=O)N1,> 100 µM,–

SMILES,TGI,GI50
CS(=O)(=O)OCCN(CCOS(C)(=O)=O)c1ccc(C=Nc2ccc3oc(=O)ccc3c2)cc1,52.5 µM,–
Cc1ncc(CO)c(CN)c1O,> 100 µM,–
O=C(O)c1ccc(S(=O)(=O)N=Nc2c(O)[nH]c3ccccc23)cc1,> 100 µM,–
O=C1SC(c2ccc(Cl)cc2)(c2ccc(Cl)cc2)c2ccccc21,> 100 µM,–
Cc1cc(NC(=O)C(=O)Cc2cnc3ccccc3n2)c(S(=O)(=O)O)cc1Cl,> 100 µM,–
CC(C)(C)C1CCC2(CC1)CCN(CCCN1CCOCC1)CC2,> 100 µM,–
CC1CCCN(CC(O)CN2CCCc3ccccc32)C1 (stereo not given),> 100 µM,–
CC(C)=CCC/C(C)=C/CC/C(=C/COP(=O)(OCc1ccc([N+](=O)[O-])o1)N(C)CCCCCl)CC=C(C)C (stereo not given),38.5 µM,20.2 µM
NC(N)=N/N=C/c1cccc(Cl)c1Cl,16.1 µM,4.49 µM
CN(C)c1ccc(C2CC(=O)C(C#N)=C(c3ccccc3)NN2C)cc1 (stereo not given),> 100 µM,–
COc1cc2nc(-c3ccc(-n4cncc4-c4ccc(N)cc4)cc3)sc2c(OC)c1OC,21.5 µM,2.07 µM
Cc1cn(CC2=NCC(C)(C)CN2)c(=O)[nH]c1=O,> 100 µM,–
CC1(C)[C@@H]2C[C@H]1C(Cc1ccc(C[C@H]3c4cc(-c5ccccn5)ncc4[C@H]4C[C@@H]3C4(C)C)cc1)c1cc(-c3ccccn3)ncc12 (stereo not given in full),> 100 µM,–
O=C(NCCCNC(=O)OCc1ccc2c(Br)cc(Br)c(O)c2n1)OCc1ccc2c(Br)cc(Br)c(O)c2n1,> 100 µM,> 100 µM
CC1=CC2(O)OC3(CC2=C(C)C)C(C)CCC13 (stereo not given),> 100 µM,–
CN(C)c1ncnc2c1ncn2C1C=CC(COS(N)(=O)=O)C1 (stereo not given),> 100 µM,–
CCn1c(-c2nonc2N)nc2c(C#CC(C)(C)O)nc(O[C@@H](CN)c3ccccc3)cc21,3.74 µM,0.639 µM
CCOC(=O)CC1=NC(=Nc2cc(Cl)ccc2Cl)SC1,> 100 µM,–
CC(=O)NCCCCCCNC(C)=O,> 10000 µM,–
